Tests used:
Settings in all cases: remark: other sources report otherwise
[1] = target: A244 gp120 (no modifications) (HIV-1); experiment: SPR titration, binding to CH01-04_RUA1; A244 gDneg at [10] to [100], unit inferred
[2] = target: A244 gp120 (no modifications) (HIV-1); experiment: SPR titration, binding to CH01-04_RUA1; A244 gDneg at [10], [25], [50], [75], [100], unit inferred; constant labelled ka1
[3] = target: A244 gp120 (no modifications) (HIV-1); experiment: SPR titration, binding to CH01-04_RUA2; A244 gDneg at [10] to [100], unit inferred
[4] = target: A244 gp120 (no modifications) (HIV-1); experiment: SPR titration, binding to CH01-04_RUA2; A244 gDneg at [10] to [100], unit inferred; constant labelled kd1
[5] = target: A244 gp120 (no modifications) (HIV-1); experiment: SPR titration, binding to CH01-04_RUA2; A244 gDneg at [10], [25], [50], [75], [100], unit inferred; constant labelled ka1

Binder | Kd [1] [µM] | koff [1] [s⁻¹] | kon [2] [M⁻¹ s⁻¹] | Kd [3] [µM] | koff [4] [s⁻¹] | kon [5] [M⁻¹ s⁻¹]
CH01_RUA1 (antibody) chain 1: EVQLVESGGGVVRPGGSLRLSCAASGFTFDDYGMSWVRQAPGKGLEWVSGINWNGGSTGYADSVKGRFTISRDNAKNSLYLQMNSLRAEDTALYYCARGTDYTIDDQGIRYQGSGTFWYFDLWGRGTLVTVSS chain 2: [letters of about 100 residues not shown] | 11.4 | 0.018 | 1580 |  |  | 
CH01_RUA2 (antibody) chain 1: EVQLVESGGGVVRPGGSLRLSCAASGFTFDDYGMSWVRQAPGKGLEWVSGINWNGGSTGYADSVKGRFTISRDNAKNSLYLQMNSLRAEDTALYYCARGTDYTIDDQGILYQGSGTFWYFDLWGRGTLVTVSS chain 2: [letters of about 100 residues not shown] |  |  |  | 2.82 | 0.01 | 3550

From US10040826
